This is one part of the list.

The chains are these.
B1: chr1:235808650:235808751:-|CDS|ENSG00000143669|unk|total|mutant (ssRNA)
RNA: GGGAGUUCUACAGUCCGACGAUCUGGAAAUGGGAUGCUUUAAAGGCUUAUCAGAACUUUGUUUUUGAAGAAGACAGAUUACACCGUAUACAGAUUGCAAAUCACAUUUGCAAUUUAAUCCAGAAAGGCAAUACCGUUGUUCAGCAACAGAGGAUUGAGCAUCA
B2: chr7:107202531:107202632:-|3pUTR|ENSG00000164597|msi1|FALSE|unique (ssRNA)
RNA: GGGAGUUCUACAGUCCGACGAUCUAUUCUGAGAACUCAUAAAUAAAAUUCAGCCAAGAUUAAUCAAUCAAUCAAUCAAUCAGUAGACGUCAGAGAUAAGCAACUUUUUUUUCCAUUUAUUUGAAAUAAUAUACAAGAAUAUAGCAACAGAGGAUUGAGCAUCA
B3: chr1:225494445:225494546:-|3pUTR|ENSG00000154380|msi1|FALSE|unique (ssRNA)
RNA: GGGAGUUCUACAGUCCGACGAUCUUGGGUGUUCCCUCUUCUUAUUUUCUCUCUGCCCACCUUGACACAGUAACUUCCUCUUAUAGUCAAGAUGAUGAUUAAGUGUUUAAUUUUUAUUCCAUUUUGUUCUGCAACACGUUCAGGCAACAGAGGAUUGAGCAUCA
B4: chr1:93152962:93153063:-|3pUTR|ENSG00000117500|msi1|FALSE|bound_elsewhere (ssRNA)
RNA: GGGAGUUCUACAGUCCGACGAUCGCUGGAAUUCUUGAUGAGCAAUAAUGAUAACCAGAGAGUGAUUUCAUUUACACUCAUAGUAGUAUAAAAAGAGAUACAUUUCCCUCUUAGGCCCCUGGGAGAAGAGCAGCUUAGAUUUCCCAACAGAGGAUUGAGCAUCA
B5: chr7:38725943:38726055:-|3pUTR|ENSG00000006715|unk|total|mutant (ssRNA)
RNA: GGGAGUUCUACAGUCCGACGAUCGAAAUUUUGGGGUCCACCGUGAAUAUUUUGUUAUUUAUUUGUUUGGCUCAUUCUUUAUACCGUAAUGGAAACAUAAGUCCCGGAGUCCGAAAUGAAUUUUUCCGACCUCCGUAAAACCAUCAACAGAGGAUUGAGCAUCA
B6: chr10:73251842:73251943:-|CDS|ENSG00000182180|msi1|FALSE|unique (ssRNA)
RNA: GGGAGUUCUACAGUCCGACGAUCUCGGCCGUUCUACCGCAUUGUGGCUGCUCACAACAAGUGUCCCAGGGAUGGCCGUUUCGUAGAGCAGCUGGGCUCCUAUGAUCCAUUGCCCAACAGUCAUGGAGAAAAACUCGUUGCCCUCAACAGAGGAUUGAGCAUCA
B7: chr8:124550783:124552991:-|three_prime_utr|ENSG00000170873|control|control|control (ssRNA)
RNA: GGGAGUUCUACAGUCCGACGAUCAUUAAUAAAACCUAAUUUGUCUUGAUCCAUUCCACUCUAUAAUAAAACAAAAGAUUUUGUAGGCAACUCGGAAUAUAGCUCUUUUGAAAGUACUCGACACCUUUAGAUAAGAAUUAAAACCAACAGAGGAUUGAGCAUCA
B8: chr15:100649042:100649144:+|3pUTR|ENSG00000183475|unk|total|mutant (ssRNA)
RNA: GGGAGUUCUACAGUCCGACGAUCUACCUCUGCUUUUCUUUUGCUGUGCUCUUGUUUUUAACUUAUUUUUUUUUUAACAACUGCCGUACACUACCCUGAGACACUGCAUCUCGAUUUCUAUCUCCCGUCCGAGUUGUACUUUUACAACAGAGGAUUGAGCAUCA
B9: chr4:56502255:56502306:+|3pUTR|ENSG00000174780|msi1_unk|total|mutant (ssRNA)
RNA: GGGAGUUCUACAGUCCGACGAUCAUUUCAGCUGGAGUCUGAAGAUACUUGUUUCUGUUCAAGUCCCACUUUAAAUUAUGUCUCCGGAGACUGAAAGUGGAAUCUUCUGAGCAUUCCUAAAUAUCUGCUCCGAAAUAUCAUGUGCAACAGAGGAUUGAGCAUCA
B10: chr6:133987709:133987810:+|3pUTR|ENSG00000028839|unk|total|mutant (ssRNA)
RNA: GGGAGUUCUACAGUCCGACGAUCAAUAACAAACCGGAAUUUUUUUUCUUGCAGAUCCGAAAUAAAAACGUGUAUAUAAACUCCCGGGAACCAGACCCGAAGUUUACCGAUAAAGGAUAAUGUUUUAUGUUGCUAAUUUAAUAUCAACAGAGGAUUGAGCAUCA
B11: chr17:29498396:29498497:+|CDS|ENSG00000160551|msi1|total|mutant (ssRNA)
RNA: GGGAGUUCUACAGUCCGACGAUCCAGCAGCCAAAGCAGCCGUGUUAACAGUCUUCCAGAUGUCUCAGAUGACAAGAGUGAGCCCGACAUGAUGGAGGGAGACCACACAGUGAUGUCUAACAGUUCUGUUAUCCAUUUAAAACCCAACAGAGGAUUGAGCAUCA
B12: chr6:83525322:83525423:+|3pUTR|ENSG00000146250|msi1|total|mutant (ssRNA)
RNA: GGGAGUUCUACAGUCCGACGAUCACAAUUACAAUGUGUAUUAUUUAAAAAUGGGAGAAACCGUUUGUUCUAUGAAAUAAACCCCGUUCCGAAACCGGGAAGCUGAGACAUUUUAAGAUCUCAAGUUUUUAUUUAACUAAUACUCAACAGAGGAUUGAGCAUCA
B13: chr9:124811826:124811928:+|3pUTR|ENSG00000185585|msi1|FALSE|unique (ssRNA)
RNA: GGGAGUUCUACAGUCCGACGAUCAAGAAAUUUUCUAGCCCAACUCCCUGUUUCAUGAAAGAGAAAAGAGGCUCAGAAAAGUUUAGAGAGCAGCUCAGUGUCACACUGGGAGCUGGGCACAGCCGAUCUCCUUCCAGAAGGGUUCAACAGAGGAUUGAGCAUCA
B14: chr11:123753582:123754518:-|CDS|ENSG00000221931|control|control|control (ssRNA)
RNA: GGGAGUUCUACAGUCCGACGAUCGUGGUGUCUGUGCUAAAUACUAUCCUCACCCCCCUUCUGAAUCCCUUUAUUUAUACUAUUAGAAACAAGGAGGUGAAGGGAGCCUUAAGAAAGGCAAUGACUUGCCCAAAGACUGGUCAUCAACAGAGGAUUGAGCAUCA
B15: chr11:118254921:118255022:-|3pUTR|ENSG00000149573|unk|FALSE|unique (ssRNA)
RNA: GGGAGUUCUACAGUCCGACGAUCACAGCCUCAUUAUUAAGGUCUUAUUUAAUUUCAGAGUGUAAAUUUUUUCAAGUGCUCAUUAGGUUUUAUAAACAAGAAGCUACAUUUUUGCCCUUAAGACACUACUUACAGUGUUAUGACCAACAGAGGAUUGAGCAUCA
B16: chr2:171983412:171983537:+|3pUTR|ENSG00000128708|unk|FALSE|unique (ssRNA)
RNA: GGGAGUUCUACAGUCCGACGAUCUGAUGACUUUAAUUUUAAAAUCUUGUGACAUUUUGCUUAUACUAAAAGUUAUCUAUCUUUAGUUGAAUAUUUUCUUUUGGAGAGAUUGUAUAUUUUAAAAUACUGUUUAGAGUUUAUGAGCAACAGAGGAUUGAGCAUCA
B17: ENSG00000136451:be:win_2501|3pUTR|ENSG00000136451|bound_else_gene|NA|bound_elsewhere_windowed (ssRNA)
RNA: GGGAGUUCUACAGUCCGACGAUCUCCCAAUCAGAGCCUGUUGAUAUUACAACAGGGACAGAUGUGUUAGUUGCUCACUAGAGUUUAUGUCUUAUAUUAAAUUGUAUACAGUUUUUAUUCUAACCACUAACUAGGUAGUGUAUGCAACAGAGGAUUGAGCAUCA
B18: ENSG00000136451:be:win_3651|3pUTR|ENSG00000136451|bound_else_gene|NA|bound_elsewhere_windowed (ssRNA)
RNA: GGGAGUUCUACAGUCCGACGAUCGGCAUGCAGACCCAAAACUGGGUUCUGGCUCUGCCUGCUGGGAUCUGUUAUCUCUGGUGGGCUGGCAGUCAUAAUUCACAAUUCAGACAGCCCAGGCUUCCUCCACAGUGGUCCAAGGAGCAACAGAGGAUUGAGCAUCA
B19: chr15:63694043:63694144:-|CDS|ENSG00000103657|unk|total|mutant (ssRNA)
RNA: GGGAGUUCUACAGUCCGACGAUCAGGACCUAUGCUGAUAAACUGAGUCCCAAAGCCGUUCAAUCCUUGUUGGAUCUACUCUGCCGUCAGUUGAAGAAUUUAUUGUCCCAAACUGGUGUACUACAUAUGGCCUCUUUCGGAGAACAACAGAGGAUUGAGCAUCA
B20: chr5:55135756:55136053:-|three_prime_utr|ENSG00000164287|control|control|control (ssRNA)
RNA: GGGAGUUCUACAGUCCGACGAUCGAAUUGCUUGAACCAGGGAGGCGGAAGUUGCAGUGAGCUGAGACCGUGCCACUGCUCUCUAGCUUGGCUGACAGAGUGAGACUCUGUCUCAAAAAAAAAAAUAUUUUUUUUGGAAAUUUUCAACAGAGGAUUGAGCAUCA
B21: chr3:152462637:152462738:+|3pUTR|ENSG00000152601|msi1|FALSE|unique (ssRNA)
RNA: GGGAGUUCUACAGUCCGACGAUCGAACAACAUUGUCUUUCUUUUCUAGCACAGAGUUAUGCAUUCAAAGAUGCAUACCUAGUUAGUUUCCUAUAUAUUCAUGCCAUCUUGAAAAGACAGACUAUGGUGUAACCAUGAUUCUAUCAACAGAGGAUUGAGCAUCA
B22: ENSG00000070961:be:win_5351|3pUTR|ENSG00000070961|bound_else_gene|NA|bound_elsewhere_windowed (ssRNA)
RNA: GGGAGUUCUACAGUCCGACGAUCUCACCAGAUACACAAUCCUCAGGCUGACAUAAAGUUUACGAGGACUGCUACUAUAACUGAGAGUGCUGACCAAGCAAAGAAACAUUUAGUUGAUGGUGCUUGAUAUUUUUGGUGGGUGGGCAACAGAGGAUUGAGCAUCA

This test addresses T1, UNK ZnF1-6 (called full-length) (human, UniProt Q9C0B0 30-357).
T1 sequence: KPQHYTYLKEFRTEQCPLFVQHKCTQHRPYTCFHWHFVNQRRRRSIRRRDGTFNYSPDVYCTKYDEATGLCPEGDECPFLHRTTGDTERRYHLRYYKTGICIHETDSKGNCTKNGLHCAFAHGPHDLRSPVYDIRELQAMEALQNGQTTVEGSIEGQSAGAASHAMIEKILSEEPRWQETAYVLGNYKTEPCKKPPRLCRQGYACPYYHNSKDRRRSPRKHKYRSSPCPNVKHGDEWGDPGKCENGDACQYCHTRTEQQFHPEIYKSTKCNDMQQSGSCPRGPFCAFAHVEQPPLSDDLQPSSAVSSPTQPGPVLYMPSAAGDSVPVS
The test can be described thus: nsRBNS (natural sequence RNA bind-n-seq); RBNS binding buffer (assumed for nsRBNS): 25 mM Tris pH 7.5, 150 mM KCl, 3 mM MgCl2, 0.01% Triton X-100, 500 ug/ml BSA, 20 U/ml SUPERase-In, 4 C; UNK is unkempt and MSI1 is Musashi-1; names of the RNAs are library labels; protein concentration not given here; high values mean tight binding.
In turn, B1 displayed a binding signal of 0.401 enrichment R. With B2 the figure was 2.67 enrichment R. The molecule B3 showed a binding signal of 0.807 enrichment R. B4 registered a binding signal of 1.87 enrichment R. The molecule B5 showed a binding signal of 0.419 enrichment R. In turn, B6 displayed a binding signal of 0.505 enrichment R. As for B7, the binding signal was 4.28 enrichment R. The molecule B8 gave a binding signal of 2.04 enrichment R. To B9 belongs 0.416 enrichment R; to B10, 0.562 enrichment R; to B11, 0.671 enrichment R. Regarding B12, the binding signal worked out at 0.641 enrichment R. As to B13, the binding signal came to 0.715 enrichment R. To B14 belongs 1.14 enrichment R; to B15, 3.59 enrichment R. B16 returned a binding signal of 4.24 enrichment R. B17 displayed a binding signal of 12.3 enrichment R. Molecule B18 showed a binding signal of 0.843 enrichment R. To B19 belongs 0.357 enrichment R; to B20, 0.768 enrichment R.

B21 displayed a binding signal of 1.94 enrichment R. Molecule B22 gave a binding signal of 0.586 enrichment R.

The record behind these values is paper PMC12136788.
